This list was built around the results that the source calls inconclusive (neither active nor inactive); the mix of calls is not that of the screen. A call without a number means that no potency is given here. For some of these results: A potency beside an inconclusive call is a rough fit, not a confirmed value. Active and inactive are the calls of the source. The call rests on the fitted dose curve; in most records, active means well fitted curve in the direction sought with a large enough effect; inconclusive means small, poorly fitted or top-dose-only effect, or another doubt; inactive means no such curve, though single readings can be large; an effect the other way counts as inactive or inconclusive.
Experiments:
[1] = Primary qHTS for inhibitors of nuclear receptor binding SET domain protein 2 (NSD2) in an isogenic RCH-ACV NSD2 p.E1099K mutant (9B) (AID 1645876); details: activity change, negative = viability loss: at 44.9 µM (top of the series) unless noted; further: potency means the concentration at half of the fitted maximal effect; nearly all actives have a fitted effect of over 70% in size
[2] = Primary qHTS for inhibitors of nuclear receptor binding SET domain protein 2 (NSD2) in an RCH-ACV wild type WT cells (2C) (AID 1645877); details: activity change, negative = cell killing: at 44.9 µM (top of the series) unless noted; further: nearly all actives have a fitted effect of over 70% in size; further: potency means the concentration at half of the fitted maximal effect
[3] = Primary fluorescence-based thiol-reactive (MSTI) qHTS assay for identification of artifact compounds. (AID 1845221);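 further: potency means the concentration at half of the fitted maximal effect; thiol-reactive compounds lower the probe fluorescence signal; nearly all actives have a fitted effect of over 65% in size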
In short: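 Reactivity toward the thiol probe MSTI (4 uM) is scored by fluorescence at Ex/Em 525/598 nm after 1 h at room temperature. Acetyl-MSTI and MSTI define the activity scale.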

Es-2 = assay: Primary qHTS to identify gynecologic anti-cancer compounds using libraries of approved drugs and bioactive compounds (AID 1345084); details: Gynecologic cancer cell panel viability, ATPlite luminescence, 48 h; series mostly up to 57.5 µM; further: nearly all actives have a fitted effect of over 55% in size
In short: (§1)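 Measured: luminescence after ATPlite addition (15 min, RT). Exposure: 48 h, 37 C, 5% CO2.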

HeLa = assay: as above; details: Gynecologic cancer cell panel viability, ATPlite luminescence, 48 h; series mostly up to 57.5 µM
In short: as §1

[4] = tested on: Zika virus NS2B-NS3 protease (unlinked complex); assay: Primary screen GU Rhodamine qHTS for Zika virus inhibitors: Unlinked NS2B-NS3 protease assay (AID 1347159); details: Recombinant ZIKV NS2B-NS3 protease, Rhodamine110 substrate fluorescence; series mostly up to 107 µM; further: potency means the concentration at half of the fitted maximal effect; nearly all actives have a fitted effect of over 60% in size
In short: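 Compounds, tested up to 114 microM, were incubated for 15 minutes with 25 nM unlinked NS2B-NS3 protease at pH 8.0. Cleavage of 1.5 microM Rhodamine110 substrate was then followed by fluorescence for 15 minutes.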

[5] = Primary redox qHTS assay for identification of artifact compounds. (AID 1845223); further: potency means the concentration at half of the fitted maximal effect
In short: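 Amplex Red (25 uM) and HRP (250 mU/mL) in HBSS, with compounds for 15 min, then 250 uM DTT for 30 min, room temperature, dark. Fluorescence 525/598 nm read; normalized to DMSO and 10 uM DA3003; Hill fit.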

CASKI = assay: Primary qHTS to identify gynecologic anti-cancer compounds using libraries of approved drugs and bioactive compounds (AID 1345084); details: Gynecologic cancer cell panel viability, ATPlite luminescence, 48 h; series mostly up to 57.5 µM; further: nearly all actives have a fitted effect of over 55% in size
In short: as §1

JEG-3 = assay: as above; details: Gynecologic cancer cell panel viability, ATPlite luminescence, 48 h; series mostly up to 57.5 µM
In short: as §1

SKOV3 = assay: as above; details: Gynecologic cancer cell panel viability, ATPlite luminescence, 48 h; series mostly up to 57.5 µM
In short: as §1
Tags describe the fitted curve by direction and shape.

O=C1C=CC(O)(/C=C/C(=O)OC[C@H]2O[C@@H](Oc3ccc(O)cc3)[C@H](O)[C@@H](O)[C@@H]2O)C=C1
Potency [1]: inconclusive: 7.09 µM [inhibitor, partial curve, poor fit] | Potency [2]: inconclusive: 12.6 µM [inhibitor, partial curve, poor fit] | Potency [3]: inconclusive: 7.33 µM [inhibitor, partial curve] | Potency (Es-2): inactive | Potency (HeLa): inactive

CC1CCCC2OC2C(=O)c2c(O)cc(O)cc2CC(=O)O1 (stereo not drawn)
Potency [4]: inconclusive: 44.7 µM [inhibitor, partial curve] | Potency [2]: inconclusive: 29 µM [inhibitor, single point] | Potency [5]: inconclusive: 23.8 µM [activator, single point] | Potency (CASKI): inactive

C=C1CCC[C@]2(C)C[C@]3(O)OC(=O)C(C)=C3C[C@@H]12
Potency [2]: inactive | Potency (Es-2): inactive | Potency (JEG-3): inactive | Potency (SKOV3): inactive

Source: PubChem BioAssay (NCATS)
